Data from article PMC3097243.
Results are given in words; binding and its absence hold for the method and conditions named. For some assays here: Binding seen in cells or lysates may run through a third protein. Some entries that bind do so weakly or less than the wild type. For some assays here: Sequences can lack the tags named with a protein. Each block holds one binder with its values, some of them ahead of it.

Columns and labels:
[1] = target: T1, human glycolipid transfer protein (GLTP), pGBKT7-GLTP ORF (human) (UniProt Q9NZD2); experiment: two-hybrid; Matchmaker GAL4 Two-Hybrid System 3; pGBKT7-GLTP in AH109 mated with Y187 holding a human brain cDNA library in pACT2; confirmed by cotransformation; growth and blue colour on SD with X-α-gal lacking Trp, Leu, His, Ade
T1 sequence: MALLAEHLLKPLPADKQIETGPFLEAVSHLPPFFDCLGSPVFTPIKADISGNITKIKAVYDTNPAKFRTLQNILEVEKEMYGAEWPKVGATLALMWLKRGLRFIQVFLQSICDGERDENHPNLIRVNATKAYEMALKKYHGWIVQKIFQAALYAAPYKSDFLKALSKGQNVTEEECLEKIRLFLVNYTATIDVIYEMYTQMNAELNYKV

EGFP-GLTP (human) = target: T2, EGFP-GLTP (human) (UniProt Q9NZD2); experiment: co-IP; HEK293T cotransfected with pFLAG-δ-catenin and pEGFP-GLTP; lysate precipitated with anti-GFP monoclonal antibody and Protein A & G Plus agarose; blot with anti-FLAG
T2 sequence: T1 sequence

GST-GLTP (human) = target: T3, GST-GLTP (human) (UniProt Q9NZD2); experiment: pull-down; GST-GLTP mixed with lysate of transfected HEK293T cells, 50 mM Tris, 150 mM NaCl, 0.25% NP40, 5 h at 4°C; glutathione-Sepharose beads; blot with anti-FLAG or anti-GFP; only the target purified
T3 sequence: T1 sequence

binding (GST-GLTP (human)): no binding
B3: FLAG-δ-catenin (full length) (protein, UniProt Q9UQB3 1-1225)
chain: MFARKPPGAAPLGAMPVPDQPSSASEKTSSLSPGLNTSNGDGSETETTSAILASVKEQELQFERLTRELEAERQIVASQLERCKLGSETGSMSSMSSAEEQFQWQSQDGQKDIEDELTTGLELVDSCIRSLQESGILDPQDYSTGERPSLLSQSALQLNSKPEGSFQYPASYHSNQTLALGETTPSQLPARGTQARATGQSFSQGTTSRAGHLAGPEPAPPPPPPPREPFAPSLGSAFHLPDAPPAAAAAALYYSSSTLPAPPRGGSPLAAPQGGSPTKLQRGGSAPEGATYAAPRGSSPKQSPSRLAKSYSTSSPINIVVSSAGLSPIRVTSPPTVQSTISSSPIHQLSSTIGTYATLSPTKRLVHASEQYSKHSQELYATATLQRPGSLAAGSRASYSSQHGHLGPELRALQSPEHHIDPIYEDRVYQKPPMRSLSQSQGDPLPPAHTGTYRTSTAPSSPGVDSVPLQRTGSQHGPQNAAAATFQRASYAAGPASNYADPYRQLQYCPSVESPYSKSGPALPPEGTLARSPSIDSIQKDPREFGWRDPELPEVIQMLQHQFPSVQSNAAAYLQHLCFGDNKIKAEIRRQGGIQLLVDLLDHRMTEVHRSACGALRNLVYGKANDDNKIALKNCGGIPALVRLLRKTTDLEIRELVTGVLWNLSSCDALKMPIIQDALAVLTNAVIIPHSGWENSPLQDDRKIQLHSSQVLRNATGCLRNVSSAGEEARRRMRECDGLTDALLYVIQSALGSSEIDSKTVENCVCILRNLSYRLAAETSQGQHMGTDELDGLLCGEANGKDAESSGCWGKKKKKKKSQDQWDGVGPLPDCAEPPKGIQMLWHPSIVKPYLTLLSECSNPDTLEGAAGALQNLAAGSWKWSVYIRAAVRKEKGLPILVELLRIDNDRVVCAVATALRNMALDVRNKELIGKYAMRDLVHRLPGGNNSNNTASKAMSDDTVTAVCCTLHEVITKNMENAKALRDAGGIEKLVGISKSKGDKHSPKVVKAASQVLNSMWQYRDLRSLYKKDGWSQYHFVASSSTIERDRQRPYSSSRTPSISPVRVSPNNRSASAPASPREMISLKERKTDYECTGSNATYHGAKGEHTSRKDAMTAQNTGISTLYRNSYGAPAEDIKHNQVSAQPVPQEPSRKDYETYQPFQNSTRNYDESFFEDQVHHRPPASEYTMHLGLKSTGNYVDFYSAARPYSELNYETSHYPASPDSWV

binding (GST-GLTP (human)): no binding
B4: FLAG-N-terminal δ-catenin (1-692 a.a.) (domain or fragment, UniProt Q9UQB3 1-692)
chain: MFARKPPGAAPLGAMPVPDQPSSASEKTSSLSPGLNTSNGDGSETETTSAILASVKEQELQFERLTRELEAERQIVASQLERCKLGSETGSMSSMSSAEEQFQWQSQDGQKDIEDELTTGLELVDSCIRSLQESGILDPQDYSTGERPSLLSQSALQLNSKPEGSFQYPASYHSNQTLALGETTPSQLPARGTQARATGQSFSQGTTSRAGHLAGPEPAPPPPPPPREPFAPSLGSAFHLPDAPPAAAAAALYYSSSTLPAPPRGGSPLAAPQGGSPTKLQRGGSAPEGATYAAPRGSSPKQSPSRLAKSYSTSSPINIVVSSAGLSPIRVTSPPTVQSTISSSPIHQLSSTIGTYATLSPTKRLVHASEQYSKHSQELYATATLQRPGSLAAGSRASYSSQHGHLGPELRALQSPEHHIDPIYEDRVYQKPPMRSLSQSQGDPLPPAHTGTYRTSTAPSSPGVDSVPLQRTGSQHGPQNAAAATFQRASYAAGPASNYADPYRQLQYCPSVESPYSKSGPALPPEGTLARSPSIDSIQKDPREFGWRDPELPEVIQMLQHQFPSVQSNAAAYLQHLCFGDNKIKAEIRRQGGIQLLVDLLDHRMTEVHRSACGALRNLVYGKANDDNKIALKNCGGIPALVRLLRKTTDLEIRELVTGVLWNLSSCDALKMPIIQDALAVLTNAVIIPHSG

Second part, the binder before the results:

B1: C-terminal region of human delta-catenin (672-1225 a.a.), pACT2 clone (domain or fragment, UniProt Q9UQB3 672-1225)
chain: MPIIQDALAVLTNAVIIPHSGWENSPLQDDRKIQLHSSQVLRNATGCLRNVSSAGEEARRRMRECDGLTDALLYVIQSALGSSEIDSKTVENCVCILRNLSYRLAAETSQGQHMGTDELDGLLCGEANGKDAESSGCWGKKKKKKKSQDQWDGVGPLPDCAEPPKGIQMLWHPSIVKPYLTLLSECSNPDTLEGAAGALQNLAAGSWKWSVYIRAAVRKEKGLPILVELLRIDNDRVVCAVATALRNMALDVRNKELIGKYAMRDLVHRLPGGNNSNNTASKAMSDDTVTAVCCTLHEVITKNMENAKALRDAGGIEKLVGISKSKGDKHSPKVVKAASQVLNSMWQYRDLRSLYKKDGWSQYHFVASSSTIERDRQRPYSSSRTPSISPVRVSPNNRSASAPASPREMISLKERKTDYECTGSNATYHGAKGEHTSRKDAMTAQNTGISTLYRNSYGAPAEDIKHNQVSAQPVPQEPSRKDYETYQPFQNSTRNYDESFFEDQVHHRPPASEYTMHLGLKSTGNYVDFYSAARPYSELNYETSHYPASPDSWV
binding [1]: binds

B2: FLAG-C-terminal δ-catenin (672-1225 a.a.) (domain or fragment, UniProt Q9UQB3 672-1225)
chain: B1 chain
binding (EGFP-GLTP (human)): binds | binding (GST-GLTP (human)): binds
